According to PubChem BioAssay AID720709 (National Center for Advancing Translational Sciences (NCATS), 2013):
Screen size: about 360,000 compounds; about 520 (0.14%) were called active. The shares of active, inactive and inconclusive entries below differ from those in the screen. Calls follow the shape of the dose curve; as a rule, active = well fitted inhibition curve with a large enough effect; inconclusive = small, poorly fitted or top-dose-only effect; inactive = no such curve, though single readings can be large or run the other way. No potency is given beside an inconclusive call; the fits are too rough.

Each compound was assayed against Rap guanine nucleotide exchange factor 3 (Homo sapiens) (UniProt O95398) (assay: qHTS for Antagonist of cAMP-regulated guanine nucleotide exchange factor 3 (EPAC1): primary screen). Conditions: EPAC1 GEF assay, Rap1b-BODIPY-GDP exchange fluorescence; activity change, negative = inhibition: at 115 µM (top of the series).
UniProt O95398, sequence (O95398 whole entry, looked up): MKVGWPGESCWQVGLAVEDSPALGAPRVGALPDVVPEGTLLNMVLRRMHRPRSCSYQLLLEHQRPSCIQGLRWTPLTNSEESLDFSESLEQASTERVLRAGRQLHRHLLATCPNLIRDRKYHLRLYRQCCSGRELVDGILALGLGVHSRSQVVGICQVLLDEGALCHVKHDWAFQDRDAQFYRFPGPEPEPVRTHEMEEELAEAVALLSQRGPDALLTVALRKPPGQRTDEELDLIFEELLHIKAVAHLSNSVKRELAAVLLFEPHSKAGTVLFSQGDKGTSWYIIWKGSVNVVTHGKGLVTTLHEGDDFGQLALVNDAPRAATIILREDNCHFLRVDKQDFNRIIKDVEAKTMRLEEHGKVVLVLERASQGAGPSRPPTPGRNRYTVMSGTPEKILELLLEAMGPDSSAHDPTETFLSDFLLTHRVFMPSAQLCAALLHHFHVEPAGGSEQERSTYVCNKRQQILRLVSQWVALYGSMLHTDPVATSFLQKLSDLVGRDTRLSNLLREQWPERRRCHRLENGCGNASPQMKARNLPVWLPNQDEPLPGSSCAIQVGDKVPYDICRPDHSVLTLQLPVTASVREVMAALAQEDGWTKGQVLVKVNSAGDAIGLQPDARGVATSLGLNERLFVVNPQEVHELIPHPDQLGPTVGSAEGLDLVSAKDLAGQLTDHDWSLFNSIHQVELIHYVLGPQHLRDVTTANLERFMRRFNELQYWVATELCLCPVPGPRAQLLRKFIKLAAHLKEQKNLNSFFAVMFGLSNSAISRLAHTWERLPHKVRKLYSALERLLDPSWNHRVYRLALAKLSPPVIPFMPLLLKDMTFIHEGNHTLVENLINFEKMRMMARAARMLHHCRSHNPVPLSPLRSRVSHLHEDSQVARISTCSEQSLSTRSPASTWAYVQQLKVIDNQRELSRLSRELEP
Also: nearly all actives have a fitted effect of over 50% in size.
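For activity change, negative = inhibition in this document: plate controls were vehicle for no effect and positive control for full effect.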
Potency is read from the fitted curve at half-maximal effect; tags tell the direction and shape of the fitted curve.

| Structure (SMILES) | Potency | activity change, negative = inhibition |
| --- | --- | --- |
| Cc1cc(/C=C2\C(=O)NC(=O)N(Cc3ccccc3)C2=O)c(C)n1-c1ccc(Cl)c(C(=O)O)c1 | inconclusive [inhibitor, single point] |  |
| CCCCCSc1cc(OC)c(CCN(C)C)cc1OC | inconclusive [inhibitor, partial curve] |  |
| CN(Cc1ccccc1)C(=O)CN1CCCC1=O | inconclusive [inhibitor, full curve, poor fit] |  |
| Cc1cc(/C=C2\C(=O)NC(=O)N(Cc3ccccc3Cl)C2=O)c(C)n1-c1ccc(C(=O)O)cc1 | inconclusive [inhibitor, partial curve] |  |
| CC(C)CN(CC(C)C)c1ccc(C=C2C(=O)NC(=S)NC2=O)cc1[N+](=O)[O-] | inconclusive [inhibitor, single point] |  |
| COc1ccc(S(=O)(=O)Nc2cc([N+](=O)[O-])ccc2OC)cc1 | inconclusive [inhibitor, single point] |  |
| CC(=O)O[C@H]1[C@H]2O[C@]23[C@@H]2CC[C@]4(O)C[C@@H](O)CC[C@]4(C)C2CC[C@]3(C)[C@H]1c1ccc(=O)oc1 (stereo not given in full) |  | inactive: -5.53% |
| Cc1cc(Cl)ccc1OCCCC(=O)NCc1cccs1 | inconclusive [inhibitor, full curve, poor fit] |  |
| COc1ccc(-n2c(/C=C/c3ccc(O)c(O)c3)nc3ccccc3c2=O)cc1 | inconclusive [inhibitor, single point] |  |
| O=P(O)(Oc1ccccc1)OC(c1ccccc1)C(F)(F)F (stereo not given) | inconclusive [inhibitor, single point] |  |
| CCCCn1c(O)c(C(=O)/C=C/c2c[nH]c3ccccc23)c(=O)[nH]c1=O |  | inactive: 12.3% |
| Cc1cc(=O)oc2cc(OCC(=O)N3CCC(C(=O)O)(c4ccccc4)CC3)ccc12 | inconclusive [inhibitor, full curve] |  |
| CN1CCc2cc(O)cc3c2[C@H]1Cc1ccc(O)c(O)c1-3 | inconclusive [inhibitor, partial curve] |  |
| COC(=O)C1=C(c2ccc(Cl)c(C(F)(F)F)c2)C[C@@H]2CC[C@H]1N2C(=O)NCc1cc(C)oc1C(F)(F)F | inconclusive [inhibitor, full curve] |  |
| O=[N+]([O-])c1ccc(CN2CC=C(c3ccccc3)CC2)cc1 | inconclusive [inhibitor, single point] |  |
| O=Nc1c(O)c2ccccc2c2ccccc12 | inconclusive [inhibitor, partial curve] |  |
| Cc1cc(/C=C2/C(=O)NC(=O)N(Cc3ccco3)C2=O)c(C)n1-c1ccccc1O | inconclusive [inhibitor, partial curve] |  |
| COc1ccc(CC2c3cc(OC)c(OC)cc3CCN2C)cc1O (stereo not given) |  | inactive: 5.85% |
| Cc1ccsc1C(=O)C1CCCN(Cc2cccc(-n3cccn3)c2)C1 (stereo not given) | inconclusive [inhibitor, partial curve, poor fit] |  |
| CC1(C)OC(c2ccccc2)=C/C(=C/C=C2C(=O)NC(=O)NC2=O)O1 | inconclusive [inhibitor, full curve, poor fit] |  |
| CN(C)CC(C(=O)Cc1ccccc1)c1ccccc1 (stereo not given) | inconclusive [inhibitor, partial curve] |  |
| Oc1ccc2c3c1O[C@H]1c4[nH]c5ccccc5c4C[C@@]4(O)[C@@H](C2)N(CC2CC2)CC[C@]314 |  | inactive: -2.83% |

| Structure (SMILES) | Potency | activity change, negative = inhibition |
| --- | --- | --- |
| CCN(CC)CCNC(=O)c1nn(-c2ccc(C)cc2)c(=O)c2c1c1ccccc1n2C | inconclusive [inhibitor, single point] |  |
| Cc1cc(C)c(OCC(=O)N2CCN(c3ncc(C(F)(F)F)cc3Cl)CC2)c(C)c1 | inconclusive [inhibitor, partial curve] |  |
| C=CCN1C(=O)/C(=C/c2ccc(Br)s2)C(=O)NC1=S | inconclusive [inhibitor, partial curve] |  |
| O=C1Nc2ccccc2/C1=C/c1nc2ccccc2c(=O)n1-c1ccc(O)cc1 | inconclusive [inhibitor, full curve] |  |
| O=c1c2ccccc2[se]n1-c1ccccc1 |  | inactive: -13.4% |
| CCCN(CCC)C1Cc2cc(OC)c(OC)cc2C1 | inconclusive [inhibitor, full curve, poor fit] |  |
| N=C1/C(=C\c2ccc(OC(=O)c3ccccc3Cl)cc2)C(=O)N=C2SC(N3CCOCC3)=NN12 | inconclusive [inhibitor, partial curve] |  |
| COC(=O)C1=C(c2ccc(OC(F)(F)F)cc2)C[C@@H]2CC[C@H]1N2C(=O)NCC1CC1 | inconclusive [inhibitor, full curve, poor fit] |  |
| N=C1c2ccccc2CN1NC(=O)c1ccc(Br)cc1 | inconclusive [inhibitor, partial curve] |  |
| Nc1cc(Cl)c2nonc2c1[N+](=O)[O-] | inconclusive [inhibitor, partial curve] |  |
| Cn1c(=O)oc2cc(S(=O)(=O)NCc3cccnc3)ccc21 | inconclusive [inhibitor, single point] |  |
| CCOP(=O)(Nc1ccc2c(c1)C(=NNC(N)=S)c1ccccc1-2)OCC | inconclusive [inhibitor, single point] |  |
| O=C1NC(=O)N(c2ccccc2)C(=O)/C1=C/c1coc2ccc(O)cc2c1=O | inconclusive [inhibitor, single point] |  |
| C[C@]12CCC3C(CC[C@H]4[C@@H](O)[C@H](O)CC[C@]34C)C1CCC2=O (stereo not given in full) |  | inactive: -1.13% |
| O=C1NC(=S)N(c2ccc(F)cc2)C(=O)/C1=C\c1ccoc1 | inconclusive [inhibitor, full curve] |  |
| Oc1c(Br)c(Br)c(Br)c(Br)c1Br | active: 70.8 µM |  |
| CCn1c(O)c(C=Nc2ccc(N3CCOCC3)c(Br)c2)c(=O)n(CC)c1=S |  | inactive: 0.558% |
| Cc1ccc(N2C(=O)NC(=O)/C(=C\C=C\c3ccco3)C2=O)cc1 | inconclusive [inhibitor, partial curve, poor fit] |  |
| COc1cccc(C2[C@H](C)C3(CCN2C)OCCO3)c1 (stereo not given in full) | inconclusive [inhibitor, full curve, poor fit] |  |
| COc1cc2c(cc1OC)-c1c3c(cc4c1[C@@H](C2)N(C)CC4)OCO3 |  | inconclusive: -17.1% [inhibitor] |
| Cn1c(O)c(C=NC2CCN(Cc3ccccc3)CC2)c(=O)n(C)c1=O | inconclusive [inhibitor, single point] |  |
| O=C(CN1CC=C(c2ccccc2)CC1)NC(=O)NCc1ccccc1 | inconclusive [inhibitor, single point] |  |

| Structure (SMILES) | Potency | activity change, negative = inhibition |
| --- | --- | --- |
| O=c1[nH]c(O)c(N=Nc2ccc([N+](=O)[O-])cc2)c(=O)[nH]1 | inconclusive [inhibitor, single point] |  |
| Cc1ccc(/C=C2\C(=O)NC(=O)N(Cc3ccccc3Cl)C2=O)o1 | inconclusive [inhibitor, full curve, poor fit] |  |
| CN1C(=O)NC(=O)/C(=C\c2ccc([N+](=O)[O-])o2)C1=O |  | inactive: -3.38% |
| N#CC(C#N)=NNc1ccc(S(=O)(=O)N2CCCC2)cc1 | inconclusive [inhibitor, full curve, poor fit] |  |
| Cn1cccc1/C=C1\C(=O)NC(=O)N(Cc2ccccc2)C1=O | inconclusive [inhibitor, full curve] |  |
| Cc1cc(C)cc(-n2c(O)c(C=Nc3ccc(N4CCOCC4)cc3)c(=O)[nH]c2=S)c1 |  | inactive: -23.8% |
| CC(C)OC(=O)c1c(N)n(CC2CCCO2)c2nc3ccccc3nc12 (stereo not given) |  | inactive: -6.5% |
| CCOC(=O)C(NS(=O)(=O)c1ccc(C)cc1)(C(F)(F)F)P(=O)(OCC(C)C)OCC(C)C (stereo not given) | inconclusive [inhibitor, partial curve] |  |
| O=C(Nc1ccc(Br)cc1C(=O)O)c1ccc2c(c1)C(=O)N(Cc1ccccc1)C2=O | inconclusive [inhibitor, partial curve] |  |
| COc1ccc(CN2CCNCC2)cc1 | inconclusive [inhibitor, full curve] |  |
| O=c1[nH]sc2cc(F)ccc12 |  | inactive: -12.8% |
| COc1ccc(N2C(=O)/C(=C/C=C/c3ccccc3[N+](=O)[O-])C(=O)NC2=S)cc1 | active: 44.7 µM |  |
| COCCCn1c(N)c(C(=O)NCCC(C)C)c2nc3ccccc3nc21 | active: 50.1 µM |  |
| COc1cc(/C=C/c2nc3ccccc3c(=O)n2-c2ccc(O)cc2)ccc1O | inconclusive [inhibitor, partial curve] |  |
| N#CC(C#N)=Cc1ccc(O)c(O)c1 |  | inactive: 4.4% |
| CC(C)[C@H]1C(=O)N2CCC[C@H]2[C@]2(O)O[C@](NC(=O)[C@@H]3C=C4c5cccc6[nH]cc(c56)C[C@H]4N(C)C3)(C(C)C)C(=O)N12 | inconclusive [inhibitor, partial curve, poor fit] |  |
| CNc1ccc2nc3ccccc3[n+](C)c2c1 | inconclusive [inhibitor, partial curve] |  |
| CCOc1cc(-c2c(C#N)c(=O)[nH]c3c2c(C)nn3-c2ccc(F)cc2)ccc1O | inconclusive [inhibitor, partial curve] |  |
| COc1ccccc1C(=O)Nc1ccc2c(c1)CC1(C(=O)N(C)C(=O)N(C)C1=O)C1CCCN21 (stereo not given) | inconclusive [inhibitor, single point] |  |
| N#CC(C#N)=NNc1ccc(S(N)(=O)=O)cc1 | active: 56.2 µM |  |
| CN1C(=O)C(Cc2ccsc2)C(=O)N(C)C1=O |  | inactive: -2.85% |
